Measured values taken from PubChem BioAssay AID1347073 (National Center for Advancing Translational Sciences (NCATS), 2019).
Screen size: about 45,000 compounds; about 200 (0.44%) were called active. Roughly 7% stayed inconclusive and do not appear here. Calls come from the whole dose curve; as a rule, active = well fitted activation curve with a large enough effect; inconclusive = small, poorly fitted or top-dose-only effect; inactive = no such curve, though single readings can be large or run the other way. This is one part of the list.

assay: qHTS of TDP-43 Inhibitors: NCGC Sytravon Library Screen; settings: yeast TDP-43 toxicity rescue, BacTiter-Glo growth, 24 h; series mostly up to 46.1 µM; growth rescue (activation): at the top concentration; note: 0% is about no effect; nearly all actives have a fitted effect of over 55% in size
Summary of the method: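 TDP-43-expressing yeast, pregrown in raffinose, seeded at OD600 0.02 in galactose medium with compound for 24 hr at 30 deg C. Growth read by BacTiter-Glo luminescence, so rescue of toxicity appears as activation.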

Row | SMILES | growth rescue (activation)
1 | N#Cc1c(SCC(=O)Nc2nncs2)sc2c(O)cc(=O)[nH]c12 | inactive: 4.74%
2 | Cc1nc([N+](=O)[O-])c(Br)n1CC(=O)c1ccc(F)cc1 | inactive: 21.9%
3 | C#CCOc1c(Cl)cc(C2C3=C(CCCC3=O)N(CC(=O)O)C3=C2C(=O)CCC3)cc1OC | inactive: -2.66%
4 | CCOC(=O)C1=C(C)N=c2s/c(=C/c3ccco3)c(=O)n2C1c1cccc(OC)c1 (stereo unspecified) | inactive: -11.5%
5 | O=C(/C=C/c1ccco1)Nc1ccc(C(=O)N2CCOCC2)cc1 | inactive: -0.129%
6 | O=C(O)c1nn(Cc2ncc(-c3cccc(Cl)c3)o2)c(=O)c2ccccc12 | inactive: 12.5%
7 | COc1ccc(OCC(=O)Nc2cc(C)c(Cl)cc2OC)c([N+](=O)[O-])c1 | inactive: 12.2%
8 | Cc1ccc(CNC(=O)CSc2nc(C)cs2)cc1 | inactive: -7.86%
9 | CC(=O)NCCC(=O)N1CCCC(CNC(=O)c2ccc(-c3ccccc3)cc2)C1 (stereo unspecified) | inactive: 3.55%
10 | CC1=NN(c2nc(-c3ccc(C)cc3)cs2)C(=O)C1N=Nc1ccc(C(N)=O)cc1 (stereo unspecified) | inactive: 17.4%
11 | Cc1ccc(S(=O)(=O)NCc2csc(C)n2)cc1 | inactive: 0.0582%
12 | O=C(CNC(=O)c1ccccc1F)NCCc1ccc(Cl)cc1 | inactive: 21.6%
13 | CCc1nc2nc(C)c(NS(=O)(=O)c3ccc(C4CCCCC4)cc3)c(=O)n2[nH]1 | inactive: -23.8%
14 | COc1cc(OC)nc(NC(=S)NC(=O)c2ccccc2)n1 | inactive: -11.5%
15 | C[n+]1ccccc1/C=C/c1ccccc1Cl | inactive: 0.522%
16 | NC(CC(=O)O)c1ccc(F)cc1 (stereo unspecified) | inactive: 9.75%
17 | O=S(=O)(c1cccs1)N1CCN(c2ccccc2)CC1 | inactive: 14.9%
18 | O=C1Nc2cc(C(=O)N3CCc4ccccc4C3)ccc2S/C1=C\c1ccccc1 | inactive: 42.2%
19 | CCCCCOc1ccc(C(O)C(CN2CCOCC2)c2ccccc2)cc1 (stereo unspecified) | inactive: -1.39%
20 | C(=N\N(Cc1ccccc1)c1ccccc1)/c1ccco1 | inactive: 6.26%
21 | COC(=O)C1=C(C)NC(C)=C(C(=O)OC)C1C(=O)OCC(=O)N1CCCCC1C (stereo unspecified) | inactive: -15.5%
22 | Cc1ccc2cc(C)c(SCC(=O)NCC3CCCO3)nc2c1 (stereo unspecified) | inactive: 11%

Row | SMILES | growth rescue (activation)
23 | COc1ccc(N(CC(=O)Nc2ccccc2C(N)=O)S(=O)(=O)c2ccc(C)c([N+](=O)[O-])c2)cc1 | inactive: 1.95%
24 | COc1ccc(CNc2ncnc3ccccc23)cc1 | inactive: -6.94%
25 | COCCOc1cc(NC(=O)CS(=O)CC(=O)N(C)C)c(Cl)cc1Cl (stereo unspecified) | inactive: -4.04%
26 | CCc1ccccc1NC(=S)N1CCC(NC(=O)c2ccc(OC)cc2)CC1 | inactive: 0.874%
27 | COc1ccc2nc(N=Nc3ccc(O)c4ccccc34)sc2c1 | inactive: -9.56%
28 | Cc1oc2nc(SCC(=O)NCc3cccnc3)nc(N)c2c1C | inactive: -3.07%
29 | O=C(CCSc1nnc(-c2ccc(O)cc2)o1)N1CCOCC1 | inactive: 13%
30 | CCOc1ccc(/C=N/NC(=O)CC(=O)NCc2ccccc2)cc1 | inactive: -15.7%
31 | CCCC(=O)Nc1ccc(Cc2ccc(NC(=O)CCC)c(C(=O)O)c2)cc1C(=O)O | inactive: -1.23%
32 | Cc1cnc(NC(=O)CSCc2c(C)noc2C)s1 | inactive: 13%
33 | Cc1ccccc1-n1c(-c2ccc(=O)[nH]n2)n[nH]c1=S | inactive: 15.4%
34 | CCCN1C(=O)SC(CC(=O)Nc2ccc(C)cc2)C1=O (stereo unspecified) | inactive: 2.46%
35 | O=C(NNC(=S)NC(=O)c1ccccc1[N+](=O)[O-])c1ccccc1O | inactive: -27.6%
36 | CCCC(O)(c1ccc(OC)cc1)C(CN1CCOCC1)c1ccccc1 (stereo unspecified) | inactive: 1.98%
37 | Oc1ccc(C2=NN(c3ccccc3)C(c3ccc(F)cc3)C2)cc1 (stereo unspecified) | inactive: -90.7%
38 | COc1cc(C(C)=O)ccc1COc1ccc(C(=O)OCC(=O)NC(C)(C)C)cc1OC | inactive: 5.22%
39 | CCCOc1ccc(C(=O)N(Cc2ccc(Cl)cc2)Cc2ccco2)cc1 | inactive: 28.2%
40 | O=C(Nc1cccc(F)c1)C1CCN(S(=O)(=O)c2cccc3nonc23)CC1 | inactive: 12.4%
41 | COc1cc(NC(=S)Nc2ccc(Br)cc2Cl)c(OC)cc1Cl | inactive: 21.5%
42 | Cc1ccc(-c2c(C(=O)NC(C)C)oc(=O)c3ccccc23)cc1 | inactive: 4.92%
43 | CSc1ccccc1NC(=O)c1ccccc1 | inactive: 12.5%
44 | CCN(c1ccccc1)S(=O)(=O)c1ccc(C(=O)N2CCN(c3ccccc3)CC2)cc1 | inactive: 26.7%

Row | SMILES | growth rescue (activation)
45 | NC(=O)CC1C(=O)N(c2ccccc2)C(=S)N1NC(=O)c1ccc(Br)cc1 (stereo unspecified) | inactive: -5.53%
46 | O=C(C1CCCO1)N1CCN(C(=S)Nc2ccccc2F)CC1 (stereo unspecified) | inactive: 4.62%
47 | COc1ccc(N(C(=O)CSCC(=O)Nc2cc(C)on2)C(C(=O)NC2CCCCC2)c2ccc(O)c(O)c2)cc1 (stereo unspecified) | inactive: -12.7%
48 | O=C(COC(=O)COc1cccc(F)c1)NCCC1=CCCCC1 | inactive: 3.76%
49 | CC(C)(C)n1nc2c(c1NC(=O)c1ccco1)CS(=O)C2 (stereo unspecified) | inactive: 21.2%
50 | CCn1c2ccccc2c2cc(NC(=O)COC(=O)c3cc(S(N)(=O)=O)c(Cl)cc3Cl)ccc21 | inactive: 28.2%
51 | CCCCNC(=S)Nc1ccc([N+](=O)[O-])cc1 | inactive: 27.1%
52 | COc1ccc([N+](=O)[O-])cc1N(CC(=O)NCC1CCCO1)S(C)(=O)=O (stereo unspecified) | inactive: 8.71%
53 | CCN(CCCNC(=O)CNC(=O)c1nn(-c2ccc(OC)c(OC)c2)c(=O)c2ccccc12)c1ccccc1 | inactive: 2.61%
54 | COc1ccc(Cn2c3ccc(OC)cc3c3nc4ccccc4nc32)cc1 | inactive: 7.29%
55 | CCOc1cc(N2CCOCC2)c(OCC)cc1NC(=O)C(C)(C)C | inactive: 7.44%
56 | COc1ccc(NC(=O)C(=O)NNC(=O)C(C)Oc2ccc(Cl)cc2Cl)cc1 (stereo unspecified) | inactive: -8.83%
57 | Cc1ccc(C)c(N(CC(=O)Nc2ccccc2C(=O)NCc2ccco2)S(=O)(=O)c2ccccc2)c1 | inactive: 7.93%
58 | CC(C)c1ccc(N(CC(=O)NCc2ccc(F)cc2)C(=O)c2snc(C(N)=O)c2N)cc1 | inactive: -4.22%
59 | O=C(Cn1cnc2ccccc2c1=O)c1ccc(OC(F)F)cc1 | inactive: -32.8%
60 | CCCNC(=O)c1ccccc1NC(=O)CN(c1ccccc1)S(=O)(=O)N(C)C | inactive: -4.42%
61 | CCCNC(=O)C1(C)CCCN(Cc2cccc(C(F)(F)F)c2)C1 (stereo unspecified) | inactive: -6.75%
62 | COc1ccccc1C(=O)Nc1ccc(N2CCN(Cc3ccccc3)CC2)cc1 | inactive: -2.89%
63 | Cc1ccc(-n2nc3c(c2NC(=O)c2ccc4c(c2)OCO4)CS(=O)C3)cc1 (stereo unspecified) | inactive: 28.2%
64 | Cc1cccc(NS(=O)(=O)c2ccc3c(c2)NC(=O)CC(=O)N3)c1 | inactive: 2.63%
65 | COc1ccc(C2C3=C(CC(C)(C)CC3=O)N(C)C3=C2C(=O)CC(C)(C)C3)cc1 | inactive: -4.4%
66 | COc1ccc([N+](=O)[O-])cc1NC(=O)CCSCCc1ccccn1 | inactive: 7.93%

Row | SMILES | growth rescue (activation)
67 | CC1CCC(=NNc2ccc(C(F)(F)F)cc2[N+](=O)[O-])CC1 (stereo unspecified) | inactive: -3.75%
68 | O=C(OCc1cncs1)c1ccccc1 | inactive: -1.39%
69 | CC(=O)N1CCN(CC(=O)Nc2cccc(S(=O)(=O)N3CCCCCC3)c2)CC1 | inactive: -5.1%
70 | Cc1ccc(NC(=O)CN(C)C(=O)c2ccc(Cl)c([N+](=O)[O-])c2)cc1 | inactive: -25.3%
71 | CN(C1CCS(=O)(=O)C1)S(=O)(=O)c1ccccc1[N+](=O)[O-] (stereo unspecified) | inactive: -0.993%
72 | CCOC(=O)N(C)c1c(CC)nc2c(OCc3cc(Cl)cc(Cl)c3)cccn12 | inactive: 6.49%
73 | Cc1c(Cl)cccc1N(Cc1ccc(C(=O)O)cc1)S(=O)(=O)c1ccccc1 | inactive: 11.4%
74 | O=C(NNC(=O)c1n[nH]c2ccccc12)c1ccccc1 | inactive: -0.786%
75 | O=C(Nc1ccc(S(=O)(=O)Nc2ccccn2)cc1)c1ccc(Cl)cc1Cl | inactive: 8.62%
76 | CN1CCN(C(=O)c2ccc(COc3cc(Cl)ccc3Cl)o2)CC1 | inactive: -26.8%
77 | O=C(CSc1nc(-c2ccccc2)cc(C(F)(F)F)n1)NCc1cccs1 | inactive: 24.9%
78 | O=C(CN1C(=O)c2ccccc2C1=O)NCc1ccc(C(=O)O)cc1 | inactive: 9.58%
79 | COCCn1c(SCC(=O)N2CCCC2)nnc1-c1ccco1 | inactive: 16%
80 | Cc1ccc(NC(=O)C2=C(c3ccccc3)S(=O)(=O)CCS2(=O)=O)cc1 | inactive: 5.26%
81 | Cc1cc2cc(CN(CC3CCCO3)C(=O)c3cnccn3)c(=O)[nH]c2cc1C (stereo unspecified) | inactive: 7%
82 | Cc1ccc2c(c1)N(CC(=O)NC1CCCC1)C(=O)CO2 | inactive: 5.67%
83 | CCn1c(C)nc2cc(C(=O)NNC(=S)Nc3ccccc3)ccc21 | inactive: -3.69%
84 | NC(=O)C1CCN(C(=O)c2cc(-c3ccccc3Cl)nc3ccccc23)CC1 | inactive: 19.1%
85 | COc1cc2c(cc1OC)-c1cc(N3CCc4ccccc43)nc(=O)n1CC2 | inactive: -14.8%
86 | Cc1ccc(N(CC(=O)NC2CCCC2)C(=O)c2ccc(C)s2)cc1 | inactive: 18.5%
87 | Cc1cccc(C(=O)NNS(=O)(=O)c2ccc(F)cc2)c1 | inactive: -14.8%
88 | O=c1cnnc(Nc2cccc(F)c2)[nH]1 | inactive: -8.14%

Row | SMILES | growth rescue (activation)
89 | COc1ccc(CNC(=O)C2CCN(C(=O)N3CCOc4ccc(C)cc43)CC2)cc1 | inactive: -4.5%
90 | COc1cccc(CCNc2ccc(N3C(=O)CC(C)C3=O)cc2[N+](=O)[O-])c1 (stereo unspecified) | inactive: 7.27%
91 | CCCc1cc(=O)[nH]c(SCC(=O)N2CCN(S(=O)(=O)c3ccc4ccccc4c3)CC2)n1 | inactive: 5.92%
92 | COC(=O)c1ccccc1NC(=O)CSc1ncn[nH]1 | inactive: 7.49%
93 | CCOC(=O)c1sc(NC(=O)CCN2C(=O)c3ccccc3C2=O)c(C(=O)OCC)c1C | inactive: 2.54%
94 | O=C(O)c1cc2c(cc1NC(=O)c1ccccc1OC(F)F)OCCCO2 | inactive: 4.3%
95 | Cc1cc(NS(=O)(=O)c2ccc(NC(=O)C(C)Oc3cccc(C)c3C)cc2)nc(C)n1 (stereo unspecified) | inactive: 21%
96 | COc1ccccc1N1CCN(c2c3c(nc4nncn24)CCC3)CC1 | inactive: -2.85%
97 | CC1(C)C(=O)Nc2ccccc2N1C(=O)CN1C(=O)C(=O)N(C2CCCC2)C1=O | inactive: 1.44%
98 | CN(C)CCC(=O)N1c2ccccc2Sc2ccc(Cl)cc21 | inactive: 9.56%
99 | CC(C)(C)C1=C(C#N)C(c2cc3c(cc2Br)OCO3)C(C#N)=C(N)O1 (stereo unspecified) | inactive: 3.57%
100 | NC(=O)c1ccsc1NC(=O)COC(=O)[C@@H]1CCCN1C(=O)c1cccs1 | inactive: 11.1%
101 | CC(CC(=O)N1CCN(c2ccccc2F)CC1)c1ccccc1 (stereo unspecified) | inactive: 10.6%
102 | Cc1cccc(-n2nnnc2SCC(=O)NC2CCCC2)c1 | inactive: 5.01%
103 | Cc1ccc(/C=C/C(=O)OCC(=O)c2ccc3c(c2)NC(=O)CO3)o1 | inactive: 10.2%
104 | Cc1nnc(SCc2nc3sc(C(=O)O)c(C)c3c(=O)[nH]2)s1 | inactive: -2.55%
105 | CCCOC(=O)c1c(NC(=O)CCC(=O)O)sc2c1CCCCC2 | inactive: 11.7%
106 | CC(C)Cc1nnc(NC(=O)c2cc(-c3ccncc3)nc3ccccc23)s1 | inactive: -2.55%
